Assay results: the supplement of paper PMC3334620
Whole data set: some 33,000 sequences, median “E-score (-0.5 to 0.5)” near -0.053, cut for the highest 2% near 0.37. This is one part of the list.

biological target: Hap1 (UniProt P0CE41); experiment: PBM E-score (8-mer binding enrichment) (E-score (-0.5 to 0.5)); higher = stronger / more preferred TF binding; most listed sequences are background and not binding sites; settings: protein concentration: 200 nM; construct: GST-DNA-binding domain
Procedure: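 Universal 'all 10-mer' protein binding microarrays (Agilent AMADID 015681) probed with GST-tagged S. cerevisiae TFs (full-length or DBD) made by in vitro transcription/translation (PURExpress), about 100-200 nM. Bound TF was detected with fluorescent anti-GST. Each ungapped 8-mer (which stands for itself and its reverse complement) is scored by the PBM enrichment score (E-score), a modified Wilcoxon-Mann-Whitney statistic from -0.5 to +0.5, computed with the Universal PBM Analysis Suite. Scale: above 0.35 generally sequence-specific binding.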

UniProt P0CE41, sequence (P0CE41 whole entry, the tested form may be a part): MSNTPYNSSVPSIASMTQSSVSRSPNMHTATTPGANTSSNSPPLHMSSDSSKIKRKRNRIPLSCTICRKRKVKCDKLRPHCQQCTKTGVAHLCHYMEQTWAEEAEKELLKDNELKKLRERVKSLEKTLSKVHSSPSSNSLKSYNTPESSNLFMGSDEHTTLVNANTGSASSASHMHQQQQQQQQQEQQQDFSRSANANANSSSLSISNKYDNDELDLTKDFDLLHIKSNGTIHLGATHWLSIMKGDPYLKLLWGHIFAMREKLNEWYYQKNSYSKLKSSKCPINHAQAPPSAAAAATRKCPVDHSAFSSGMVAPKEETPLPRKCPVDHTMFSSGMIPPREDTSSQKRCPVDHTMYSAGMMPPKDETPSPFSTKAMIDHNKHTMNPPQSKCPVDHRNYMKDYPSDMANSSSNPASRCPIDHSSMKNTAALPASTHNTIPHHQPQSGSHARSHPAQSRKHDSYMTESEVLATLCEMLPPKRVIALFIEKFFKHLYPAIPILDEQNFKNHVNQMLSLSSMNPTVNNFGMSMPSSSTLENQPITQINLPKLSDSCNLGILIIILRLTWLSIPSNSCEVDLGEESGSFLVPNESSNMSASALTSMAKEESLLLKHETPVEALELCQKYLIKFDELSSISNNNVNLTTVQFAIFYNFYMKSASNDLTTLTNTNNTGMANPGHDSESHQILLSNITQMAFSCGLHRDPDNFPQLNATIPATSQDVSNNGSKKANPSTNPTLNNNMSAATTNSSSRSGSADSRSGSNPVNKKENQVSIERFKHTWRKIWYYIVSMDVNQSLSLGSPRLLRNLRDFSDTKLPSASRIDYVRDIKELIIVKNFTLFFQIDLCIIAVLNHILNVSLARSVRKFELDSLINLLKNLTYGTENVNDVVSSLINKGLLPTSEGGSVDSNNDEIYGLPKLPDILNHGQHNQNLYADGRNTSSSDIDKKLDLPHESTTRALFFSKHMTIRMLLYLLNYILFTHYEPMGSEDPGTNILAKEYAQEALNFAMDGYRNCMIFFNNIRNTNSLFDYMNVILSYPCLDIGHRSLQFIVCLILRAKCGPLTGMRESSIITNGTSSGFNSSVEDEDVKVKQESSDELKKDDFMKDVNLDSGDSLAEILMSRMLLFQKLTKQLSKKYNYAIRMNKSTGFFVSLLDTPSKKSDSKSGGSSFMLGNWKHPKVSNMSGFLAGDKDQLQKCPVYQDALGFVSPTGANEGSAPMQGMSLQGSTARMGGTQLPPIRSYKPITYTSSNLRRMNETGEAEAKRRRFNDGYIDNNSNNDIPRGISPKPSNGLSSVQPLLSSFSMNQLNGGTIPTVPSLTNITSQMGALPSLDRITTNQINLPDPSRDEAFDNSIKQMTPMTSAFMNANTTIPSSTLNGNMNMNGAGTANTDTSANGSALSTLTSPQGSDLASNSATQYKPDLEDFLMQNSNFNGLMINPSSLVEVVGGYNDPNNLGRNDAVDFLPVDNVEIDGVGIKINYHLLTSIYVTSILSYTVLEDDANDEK

Sequence | PBM E-score
CGAGACAG | 0.0426
GAAAGTTA | 0.0553
CATGAGCG | -0.0122
GCCCTAGA | -0.296
GACCTATC | 0.116
AATAAACT | 0.194
AAGCACGC | -0.113
TCCTACAA | -0.0619
AGTCGCAG | -0.0678
ACCAGGCT | -0.306
GGTTGGAA | 0.0878
TGCCCACA | -0.249
GCCCCGTA | 0.0466
CAACCCAA | -0.256
GGCCACTA | -0.0966
AAACTCAG | -0.0738
CGCCCGAA | 0.294
CCACCATC | 0.0209
ATTCCATA | 0.0177
TGGGCTAA | -0.108
CCTCGGCG | 0.37
AACGGTCG | 0.23
AAGTCGAC | -0.054
AGGAGCCC | -0.049
AAAACACA | 0.00248

Sequence | PBM E-score
AAAAAAAG | -0.0704
CCTCAGTC | -0.111
GATGAAAA | -0.0269
CTTCAACA | -0.222
AAATGCTC | 0.0505
CTTCTTAA | 0.00735
AGCAATTC | -0.0245
AGGGCGCG | -0.0446
ACGGGGTG | 0.077
TGAATTAA | -0.0149
CCTTCACC | -0.142
AGATTGGG | -0.0446
AAAACGCT | -0.158
AGGAATTC | -0.27
ACCGTCCA | 0.0238
CAACTATA | -0.13
ATGCAGCA | -0.0867
CAACGGTG | 0.0704
CACCGCGA | 0.00564
ACGTCAAT | -0.206
AAAATTTC | 0.0653
ACTAGGTC | -0.0578
GATCGCCC | -0.0362
CGATTTAC | 0.149
AATGTTTA | -0.148

Sequence | PBM E-score
ATTACCCA | -0.114
TCTTATCA | -0.0253
CGACGGCC | 0.245
ACGAGCCG | 0.0797
ACAAGCTA | -0.272
ACAGTCAT | -0.143
AACAGTCA | -0.16
ACCGCTCC | 0.142
CGGTAACC | 0.27
AGTGGCAC | -0.183
GTTCAAAC | 0.0658
ATGAAGAG | -0.107
ATGACTCA | -0.211
AAGTGAGG | -0.269
CTTCGAAA | -0.279
CAAGAATA | 0.00826
ATCTACGC | 0.148
TGGTAGAA | -0.258
TAAAAGAA | -0.225
CATACTGC | -0.186
CCCTACCG | 0.157
CAGGCGGG | -0.191
CTTCGATC | -0.0454
TGCACACA | -0.238
CACAACGG | 0.11

Sequence | PBM E-score
CATGGCCG | 0.254
ATGGAAGG | -0.0671
CCTTGAGC | -0.149
GATCCGTA | 0.225
GAACCTGC | -0.127
AAGCCGTC | 0.27
ACTGTCAT | -0.183
AGATTTAC | -0.103
AAACAGGC | -0.148
GGAGAGAA | 0.0186
AAGAACAA | 0.0116
ATGGTACC | -0.0818
CCTGCCCG | 0.159
AGAATGTG | -0.244
GTGAGATA | 0.0588
AGACTAAA | 0.0455
CACGCCAG | -0.075
ATCCGAGC | 0.356
CCACGAAG | -0.212
CCGTGCCG | 0.168
CTTTACCA | -0.248
CGTACAAA | -0.107
ATTCCGTG | 0.294
ACTATCTA | -0.0129
CAGAAGAG | -0.357

Sequence | PBM E-score
CCGTCGCG | 0.162
AAATTTGT | -0.0213
AGGAAGAT | -0.0291
GAGAAGAC | -0.0696
GGTGTTTA | 0.293
CCGAGAGG | 0.153
GTTCGGGA | 0.204
CAGCCTCG | -0.0531
GAGCAAGA | -0.0171
CAACGATA | 0.116
ATGCCAAC | -0.106
AAATCTAG | -0.13
GTGTTAGA | -0.0664
GCGACTGA | -0.184
AGGAGTCG | -0.214
AGATCCGC | 0.263
CAGCACAG | -0.217
GCTGGCAA | -0.0328
ATTAGTGC | 0.0555
TCAGGCGA | -0.0547
CACAGCGG | -0.0883
AATAGGGA | -0.146
GAACAATA | 0.0036
CTGCGCAG | -0.0918
ATCTTCTC | 0.129

Sequence | PBM E-score
CCTGGATC | -0.133
CTCACGCA | -0.0227
CCATGCCC | 0.0965
ACCCGCAA | 0.143
ACTTGTTA | -0.112
CGAACCTA | 0.0968
ATTATAAC | 0.209
CTGGGCCA | -0.139
GTGGGTAA | -0.0375
ACTGAAGT | -0.167
GACAGGCA | -0.16
ATTCGATC | 0.0801
AAAGTATT | -0.211
CGGTGTAA | 0.114
CACGCGCC | 0.123
GGTATAGA | -0.0194
GAGCAGGC | -0.161
AGCCCCGA | 0.333
ATCATAAG | -0.106
TAGGCCAA | -0.0647
CGCTCAAC | -0.104
ATAATAAT | -0.084
ACATTCGA | -0.0575
ACCCCCGC | 0.217
AGCAGGAT | -0.0378

Sequence | PBM E-score
GAACAGAC | -0.0139
GTTGGGAA | -0.0676
GGGATATA | 0.21
AGCCGGGC | 0.173
CGTAGGAG | 0.0115
ACTGGTCC | 0.173
ATAACTAA | -0.0341
CACGTCAG | -0.2
ATGTTTAC | -0.03
AAACCTTG | -0.278
TCCATCAA | 0.0213
GGAGGTGA | 0.031
AGTCAACC | -0.0124
GATGCTTA | -0.0957
GGCTGCAC | 0.00187
GGCATTAA | 0.221
AAGTATCT | -0.0978
GCGCAGAA | -0.0987
ATCCGGAG | 0.424
CGCCTGTA | 0.0724
AATAAATG | 0.0315
AAACAATG | -0.164
